# This is one part of the list.
# Experiments:
# Assay in all cases: glycan array binding signal (z-score within array); higher = stronger binding
# Conditions in all cases: glycan notation: IUPAC condensed, linker removed
# [1] = target: Neu5Ac(a2-3)GalNAc
# Summary of the method: (§1)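 Negative Z-scores can be read as non-binding. The Z-score is calculated within each array and then averaged across arrays of one protein sequence at different concentrations or buffers and across linkers. Arrays, 3228 in all, were curated from the Consortium for Functional Glycomics database and kept only where the protein sequence was available.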
# [2] = target: Neu5Ac(a2-3)GalNAc(b1-4)GlcNAc
# Summary of the method: as §1
# [3] = target: Neu5Ac(a2-3)[GalNAc(b1-4)]Gal(b1-4)Glc
# Summary of the method: as §1
# [4] = target: Neu5Ac(a2-3)[GalNAc(b1-4)]Gal(b1-4)GlcNAc
# Summary of the method: as §1
# [5] = target: Neu5Ac(a2-3)[GalNAc(b1-4)]Gal(b1-4)GlcNAc(b1-3)GalNAc
# Summary of the method: as §1
# [6] = target: Neu5Ac(a2-3)[Neu5Ac(a2-6)]GalNAc
# Summary of the method: as §1
# [7] = target: Neu5Ac(a2-6)Gal
# Summary of the method: as §1
# [8] = target: Neu5Ac(a2-6)Gal(b1-3)GlcNAc(b1-3)[Gal(b1-4)GlcNAc(b1-6)]Gal(b1-4)Glc
# Summary of the method: as §1
# [9] = target: Neu5Ac(a2-6)Gal(b1-4)Glc
# Summary of the method: as §1
# [10] = target: Neu5Ac(a2-6)Gal(b1-4)GlcNAc
# Summary of the method: as §1
# [11] = target: Neu5Ac(a2-6)Gal(b1-4)GlcNAc(b1-2)Man
# Summary of the method: as §1
# [12] = target: Neu5Ac(a2-6)Gal(b1-4)GlcNAc(b1-2)Man(a1-3)Man(b1-4)GlcNAc(b1-4)GlcNAc
# Summary of the method: as §1
# [13] = target: Neu5Ac(a2-6)Gal(b1-4)GlcNAc(b1-2)Man(a1-3)[Gal(b1-4)GlcNAc(b1-2)Man(a1-6)]Man(b1-4)GlcNAc(b1-4)GlcNAc
# Summary of the method: as §1
# [14] = target: Neu5Ac(a2-6)Gal(b1-4)GlcNAc(b1-2)Man(a1-3)[GlcNAc(b1-2)Man(a1-6)]Man(b1-4)GlcNAc(b1-4)GlcNAc
# Summary of the method: as §1
# [15] = target: Neu5Ac(a2-6)Gal(b1-4)GlcNAc(b1-2)Man(a1-3)[GlcNAc(b1-4)][Neu5Ac(a2-6)Gal(b1-4)GlcNAc(b1-2)Man(a1-6)]Man(b1-4)GlcNAc(b1-4)GlcNAc
# Summary of the method: as §1
# [16] = target: Neu5Ac(a2-6)Gal(b1-4)GlcNAc(b1-2)Man(a1-3)[Man(a1-6)]Man(b1-4)GlcNAc(b1-4)GlcNAc
# Summary of the method: as §1
# [17] = target: Neu5Ac(a2-6)Gal(b1-4)GlcNAc(b1-2)Man(a1-3)[Neu5Ac(a2-3)Gal(b1-4)GlcNAc(b1-2)Man(a1-6)]Man(b1-4)GlcNAc(b1-4)GlcNAc
# Summary of the method: as §1
# [18] = target: Neu5Ac(a2-6)Gal(b1-4)GlcNAc(b1-2)Man(a1-3)[Neu5Ac(a2-6)Gal(b1-4)GlcNAc(b1-2)Man(a1-6)]Man(b1-4)GlcNAc(b1-4)GlcNAc
# Summary of the method: as §1
# [19] = target: Neu5Ac(a2-6)Gal(b1-4)GlcNAc(b1-2)Man(a1-3)[Neu5Ac(a2-6)Gal(b1-4)GlcNAc(b1-2)Man(a1-6)]Man(b1-4)GlcNAc(b1-4)[Fuc(a1-6)]GlcNAc
# Summary of the method: as §1
# [20] = target: Neu5Ac(a2-6)Gal(b1-4)GlcNAc(b1-2)Man(a1-6)Man(b1-4)GlcNAc(b1-4)GlcNAc
# Summary of the method: as §1
# [21] = target: Neu5Ac(a2-6)Gal(b1-4)GlcNAc(b1-2)Man(a1-6)[Gal(b1-4)GlcNAc(b1-2)Man(a1-3)]Man(b1-4)GlcNAc(b1-4)GlcNAc
# Summary of the method: as §1
# [22] = target: Neu5Ac(a2-6)Gal(b1-4)GlcNAc(b1-2)Man(a1-6)[GlcNAc(b1-2)Man(a1-3)]Man(b1-4)GlcNAc(b1-4)GlcNAc
# Summary of the method: as §1
# [23] = target: Neu5Ac(a2-6)Gal(b1-4)GlcNAc(b1-2)Man(a1-6)[Man(a1-3)]Man(b1-4)GlcNAc(b1-4)GlcNAc
# Summary of the method: as §1
# [24] = target: Neu5Ac(a2-6)Gal(b1-4)GlcNAc(b1-2)[Neu5Ac(a2-6)Gal(b1-4)GlcNAc(b1-4)]Man(a1-3)[GlcNAc(b1-4)][Neu5Ac(a2-6)Gal(b1-4)GlcNAc(b1-2)[Neu5Ac(a2-6)Gal(b1-4)GlcNAc(b1-6)]Man(a1-6)]Man(b1-4)GlcNAc(b1-4)GlcNAc
# Summary of the method: as §1
# [25] = target: Neu5Ac(a2-6)Gal(b1-4)GlcNAc(b1-2)[Neu5Ac(a2-6)Gal(b1-4)GlcNAc(b1-4)]Man(a1-3)[GlcNAc(b1-4)][Neu5Ac(a2-6)Gal(b1-4)GlcNAc(b1-4)Man(a1-6)]Man(b1-4)GlcNAc(b1-4)GlcNAc
# Summary of the method: as §1
# [26] = target: Neu5Ac(a2-6)Gal(b1-4)GlcNAc(b1-2)[Neu5Ac(a2-6)Gal(b1-4)GlcNAc(b1-6)]Man(a1-6)[Neu5Ac(a2-6)Gal(b1-4)GlcNAc(b1-2)Man(a1-3)][GlcNAc(b1-4)]Man(b1-4)GlcNAc(b1-4)GlcNAc
# Summary of the method: as §1
# [27] = target: Neu5Ac(a2-6)Gal(b1-4)GlcNAc(b1-3)Gal(b1-3)GlcNAc
# Summary of the method: as §1
# [28] = target: Neu5Ac(a2-6)Gal(b1-4)GlcNAc(b1-3)Gal(b1-4)GlcNAc
# Summary of the method: as §1
# [29] = target: Neu5Ac(a2-6)Gal(b1-4)GlcNAc(b1-3)Gal(b1-4)GlcNAc(b1-2)Man(a1-3)[Neu5Ac(a2-6)Gal(b1-4)GlcNAc(b1-3)Gal(b1-4)GlcNAc(b1-2)Man(a1-6)]GalNAc
# Summary of the method: as §1
# [30] = target: Neu5Ac(a2-6)Gal(b1-4)GlcNAc(b1-3)Gal(b1-4)GlcNAc(b1-3)Gal(b1-4)GlcNAc
# Summary of the method: as §1
# [31] = target: Neu5Ac(a2-6)Gal(b1-4)GlcNAc(b1-3)Gal(b1-4)GlcNAc(b1-3)Gal(b1-4)GlcNAc(b1-2)Man(a1-3)[Neu5Ac(a2-6)Gal(b1-4)GlcNAc(b1-3)Gal(b1-4)GlcNAc(b1-3)Gal(b1-4)GlcNAc(b1-2)Man(a1-6)]GalNAc
# Summary of the method: as §1
# [32] = target: Neu5Ac(a2-6)Gal(b1-4)GlcNAc(b1-3)Gal(b1-4)GlcNAc(b1-3)GalNAc
# Summary of the method: as §1
# [33] = target: Neu5Ac(a2-6)Gal(b1-4)GlcNAc(b1-3)Gal(b1-4)GlcNAc(b1-3)[Neu5Ac(a2-6)Gal(b1-4)GlcNAc(b1-3)Gal(b1-4)GlcNAc(b1-6)]GalNAc
# Summary of the method: as §1
# [34] = target: Neu5Ac(a2-6)Gal(b1-4)GlcNAc(b1-3)Gal(b1-4)GlcNAc(b1-6)[Gal(b1-3)]GalNAc
# Summary of the method: as §1
# [35] = target: Neu5Ac(a2-6)Gal(b1-4)GlcNAc(b1-3)Gal(b1-4)[Fuc(a1-3)]GlcNAc(b1-3)Gal(b1-4)[Fuc(a1-3)]GlcNAc
# Summary of the method: as §1
# [36] = target: Neu5Ac(a2-6)Gal(b1-4)GlcNAc(b1-3)GalNAc
# Summary of the method: as §1
# [37] = target: Neu5Ac(a2-6)Gal(b1-4)GlcNAc(b1-3)[Neu5Ac(a2-6)Gal(b1-4)GlcNAc(b1-6)]GalNAc
# Summary of the method: as §1
binder,measurement,setting,value
Epa12 (Candida glabrata) (protein) MGSSHHHHHHSSGLVPRGSHMLEPDNSLQIFDSFLSNPSKYPLGCSPKITNPKKGLSMELYSYPYRKKGSHPCWDPAYLDPNFPRVGYKKNKLIARVDGVSGDINFNFHPKRQCTPIADYLPPNFNYNEPITTTNFTMLLYGYFKPKVTGLHTFDISADDLLFMNFGAGNAFDCCRRDSTADTFGNYVAWAIWGRRIVRNKLTVRLDKGIYYPLRLFFNNRDYYGQMRLTFKTEHGSERITDFSDYFFSVDDTSEGCPGLITYESECADVKSSTVLETDYITIQAEKE,glycan array binding signal (z-score),[1],-0.3
same,glycan array binding signal (z-score),[2],-0.336
same,glycan array binding signal (z-score),[3],-0.34
same,glycan array binding signal (z-score),[4],-0.328
same,glycan array binding signal (z-score),[5],-0.257
same,glycan array binding signal (z-score),[6],-0.292
same,glycan array binding signal (z-score),[7],-0.091
same,glycan array binding signal (z-score),[8],-0.186
same,glycan array binding signal (z-score),[9],-0.126
same,glycan array binding signal (z-score),[10],-0.087
same,glycan array binding signal (z-score),[11],-0.299
same,glycan array binding signal (z-score),[12],-0.309
same,glycan array binding signal (z-score),[13],-0.248
same,glycan array binding signal (z-score),[14],-0.236
same,glycan array binding signal (z-score),[15],-0.372
same,glycan array binding signal (z-score),[16],-0.249
same,glycan array binding signal (z-score),[17],-0.324
same,glycan array binding signal (z-score),[18],-0.273
same,glycan array binding signal (z-score),[19],-0.267
same,glycan array binding signal (z-score),[20],-0.244
same,glycan array binding signal (z-score),[21],-0.241
same,glycan array binding signal (z-score),[22],-0.208
same,glycan array binding signal (z-score),[23],-0.363
same,glycan array binding signal (z-score),[24],-0.162
same,glycan array binding signal (z-score),[25],-0.291
same,glycan array binding signal (z-score),[26],-0.212
same,glycan array binding signal (z-score),[27],-0.322
same,glycan array binding signal (z-score),[28],-0.281
same,glycan array binding signal (z-score),[29],-0.208
same,glycan array binding signal (z-score),[30],-0.406
same,glycan array binding signal (z-score),[31],-0.137
same,glycan array binding signal (z-score),[32],-0.381
same,glycan array binding signal (z-score),[33],-0.298
same,glycan array binding signal (z-score),[34],-0.274
same,glycan array binding signal (z-score),[35],-0.259
same,glycan array binding signal (z-score),[36],-0.292
same,glycan array binding signal (z-score),[37],-0.106

# From the supplement of paper PMC8728848
